# Measured values published in paper PMC10975527 (Viruses, 2024).
# Where two headings read alike, the source gives them in different places.
# What was measured:
# HBV rtL180M/M204V [1] = assay: microbe, parasite or virus in culture; conditions: Hepatitis B virus
# [2] = test system: HBV rtL180M/M204V/T184G/S202I; assay: microbe, parasite or virus in culture; conditions: Hepatitis B virus
# [3] = test system: HBV rtL180M/M204V/T184G/S202I; conditions: read-out: HBV DNA, EC50; Huh-7, rtL180M/M204V/T184G/S202I
# HBV rtL180M/M204V [4] = conditions: read-out: HBV DNA, EC50; Huh-7, rtL180M/M204V
compound,measurement,setting,value
COc1cc(OC(F)F)c2nc3c(n2c1)C[C@@H](C(C)(C)C)c1cc(C(=O)O)c(=O)[nH]c1-3 [AB-161],EC50,"HBV rtL180M/M204V [1]; Huh-7, read-out: HBsAg, EC50",1.9 nM
same,EC50,"[2]; Huh-7, read-out: HBsAg, EC50",2 nM
"C=C1[C@H](CO)[C@@H](O)C[C@@H]1n1cnc2c(=O)[nH]c(N)nc21 [ETV, entecavir]",EC50,"HBV rtL180M/M204V [1]; Huh-7, read-out: HBV DNA, EC50",280 nM
same,EC50,"[2]; Huh-7, read-out: HBV DNA, EC50",> 6300 nM
CCOC(=O)C1=C(CN2CCOCC2)NC(c2nccs2)=NC1c1ccc(F)cc1Br (stereo not drawn) [GLS4],EC50,[3],84 nM
same,EC50,HBV rtL180M/M204V [4],40 nM
